# Experimental data: PubChem BioAssay AID1768 (National Center for Advancing Translational Sciences (NCATS), 2009)
# Screen size: about 270,000 compounds; about 620 (0.23%) were called active. The shares of active, inactive and inconclusive entries below differ from those in the screen. The call rests on the fitted dose curve; in most records, active means well fitted inhibition curve with a large enough effect in the polarisation, with a control signal flat (not every such curve was filed as active); inconclusive means small, poorly fitted or top-dose-only effect, or effect the other way, or a change in a side signal; inactive means no such curve, though single readings can be large or run the other way; the % refers to the polarisation. Where the call is inconclusive, the potency comes from a doubtful curve fit. “Side channel” marks fits to a control or component signal instead of the main read-out.
# Biological target: Menin (Homo sapiens) (UniProt O00255)
# Test: qHTS Assay for Inhibitors Targeting the Menin-MLL Interaction in MLL Related Leukemias: Competition With Texas Red Labeled MLL-derived Mutant Peptide; on FP activity change, negative = inhibition: % of control where 0% means no effect
# Settings: fluorescence polarization; FP activity change, negative = inhibition: at 61.6 µM (top of the series)
# Potency means the concentration at half of the fitted maximal effect; tags describe the fitted curve by direction and shape or compound fluorescence and quenching.
# UniProt O00255, sequence (O00255 whole entry, looked up): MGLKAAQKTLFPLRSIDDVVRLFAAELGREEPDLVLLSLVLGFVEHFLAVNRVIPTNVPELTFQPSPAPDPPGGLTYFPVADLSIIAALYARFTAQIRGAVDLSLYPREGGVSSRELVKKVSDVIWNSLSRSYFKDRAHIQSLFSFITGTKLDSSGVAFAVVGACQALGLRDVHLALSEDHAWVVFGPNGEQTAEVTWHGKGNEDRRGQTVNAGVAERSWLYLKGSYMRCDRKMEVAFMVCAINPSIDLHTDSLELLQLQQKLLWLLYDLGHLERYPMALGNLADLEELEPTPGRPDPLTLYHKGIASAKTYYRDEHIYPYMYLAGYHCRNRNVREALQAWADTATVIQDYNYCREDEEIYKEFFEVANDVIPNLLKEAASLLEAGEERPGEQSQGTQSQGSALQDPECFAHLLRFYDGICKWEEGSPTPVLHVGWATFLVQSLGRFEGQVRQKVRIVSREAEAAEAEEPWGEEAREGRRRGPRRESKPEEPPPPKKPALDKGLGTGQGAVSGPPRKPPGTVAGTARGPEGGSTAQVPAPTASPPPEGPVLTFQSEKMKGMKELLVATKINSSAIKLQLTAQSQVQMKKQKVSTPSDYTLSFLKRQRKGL
Compound,Potency,"FP activity change, negative = inhibition"
O=C(N/N=C/c1cc(Cl)ccc1O)C(=O)Nc1ccccc1OC(F)(F)C(F)F,"inconclusive: 12.6 µM [quencher, side channel, partial curve]",–
CC1=CC(=C(C#N)c2nc3ccccc3s2)C=C(C)N1CC1CCCO1 (configuration not stated),"inconclusive: 8.91 µM [quencher, side channel, partial curve]",–
Cc1ccc2cc(CN(C)S(C)(=O)=O)c(=O)[nH]c2c1,–,inactive: -2.25%
O=C(O)c1cccc(NC(=S)NC(=O)c2cccc(OCc3ccccc3)c2)c1,"inconclusive: 35.5 µM [quencher, side channel, partial curve]",–
CCCN1CCn2c3c(c4cc(Br)ccc42)CCCC31 (configuration not stated),"inconclusive: 20 µM [fluorescent, side channel, single point]",–
O=C(NC(=S)N1CCN(c2nc(-c3ccccc3)cs2)CC1)c1cncc(Br)c1,"inconclusive: 22.4 µM [quencher, side channel, partial curve]",–
CCCCN(CCCC)S(=O)(=O)c1ccc(OC)c2ncccc12,"inconclusive: 7.08 µM [inhibitor, single point]",–
O=[N+]([O-])c1ccccc1-c1cc(-c2cc(Cl)ccc2O)n[nH]1,"inconclusive: 17.8 µM [quencher, side channel, partial curve]",–
O=C(c1ccc(Oc2ccc([N+](=O)[O-])cc2)cc1)N1CCCCCC1,"inconclusive: 6.31 µM [fluorescent, side channel, partial curve]",–
O=C(Nc1nc(-c2ccc(S(=O)(=O)N3CCOCC3)cc2)cs1)c1ccccc1,"inconclusive: 20 µM [inhibitor, single point]",–
Cc1cc(=O)oc2c(N)c(O)ccc12,–,inactive: -3.61%
CCCCCCNC(=O)CCc1nc2cccnc2n1Cc1ccc(OC)cc1,"inconclusive: 11.2 µM [fluorescent, side channel, partial curve]",–
OC(CN1CCOCC1)(c1ccccc1)c1ccccn1 (configuration not stated),"inconclusive: 12.6 µM [inhibitor, partial curve]",–
CC(C)(C)c1nc(NC(=O)Nc2ccccc2)sc1Br,"inconclusive: 8.91 µM [quencher, side channel, partial curve]",–
C#CCOCCOCCOCCNc1nc(N2CCN(C(=O)Cn3cc(CC(C)O)nn3)CC2)nc(N2CCN(C(=O)[C@H](C)n3cc(CCCN=C(N)N)nn3)CC2)n1 (some centres not stated),–,inactive: -2.2%
Cc1ccc2c(c1)sc(=NC(=O)c1cccs1)n2C,"inconclusive: 25.1 µM [quencher, side channel, single point]",–
CCCCNC1c2ccccc2C(=O)N1Cc1ccccc1 (configuration not stated),"inconclusive: 39.8 µM [fluorescent, side channel, single point]",–
CC(C)(C)NC(=O)CSc1nc(-c2ccc(F)cc2)cs1,–,inactive: -2.53%
COc1ccc(CCNC(=O)c2coc3ccccc3c2=O)cc1OC,"inconclusive: 0.282 µM [inhibitor, partial curve]",–

Compound,Potency,"FP activity change, negative = inhibition"
Cc1ccc(C)n1-c1sccc1C(=O)O,"inconclusive: 39.8 µM [fluorescent, side channel, single point]",–
COc1ccc(NS(=O)(=O)c2cccc(NC(=O)CCC(=O)c3cccs3)c2)cc1,"inconclusive: 12.6 µM [quencher, side channel, partial curve]",–
CC1(C)CC2CC(C)(CN2C(=O)c2cc(-c3ccccc3)on2)C1 (configuration not stated),"inconclusive: 8.91 µM [quencher, side channel, single point]",–
Clc1ccc(-c2csc(N/N=C/c3ccc4c(c3)OCO4)n2)cc1,"inconclusive: 14.1 µM [quencher, partial curve]",–
O=C(COC(=O)/C=C/c1cccc(C(F)(F)F)c1)Nc1cccc2ccccc12,"inconclusive: 20 µM [fluorescent, side channel, partial curve]",–
CCN(CC)c1ccc(/C=N/Nc2nc(C)cc(C)n2)c(O)c1,"inconclusive: 31.6 µM [quencher, side channel, single point]",–
COCCn1nnnc1CN(CCc1ccccc1)Cc1cc2ccc(C)cc2[nH]c1=O,"inconclusive: 28.2 µM [fluorescent, side channel, partial curve]",–
CCOC(=O)CCN1C(=O)[C@H]2[C@H]3[C@H](O)[C@H](O)C/C(=N/O[C@@H]4O[C@@H](COC(C)=O)[C@@H](OC(C)=O)[C@@H](OC(C)=O)[C@H]4OC(C)=O)[C@@H]3CC[C@@H]2C1=O,–,inactive: 14.8% [at 11.7 µM]
O=C(Nc1ccc(F)cc1)c1oc2ccccc2c1NC(=O)C1CCCC1,"inconclusive: 11.2 µM [quencher, side channel, partial curve]",–
COc1ccc2c(c1)CCc1c(C(=O)NC3CCCCC3)noc1-2,"inconclusive: 22.4 µM [inhibitor, single point]",–
Cc1ccc(/C=N/Nc2cccc3cccnc23)c(O)c1,"inconclusive: 7.94 µM [quencher, side channel, partial curve]",–
Nc1ccccc1Nc1cc(-c2ccccc2)nn1-c1ccccc1,"inconclusive: 22.4 µM [quencher, side channel, partial curve]",–
Cc1ccccc1N1C(=O)N(c2cccc(C(F)(F)F)c2)C2CS(=O)(=O)CC21 (configuration not stated),"inconclusive: 28.2 µM [quencher, side channel, single point]",–
CCCCN(C)Cc1c(O)ccc2c(-c3ccccc3)cc(=O)oc12,"inconclusive: 39.8 µM [fluorescent, side channel, single point]",–
Cc1cc2oc(=O)c(CC(=O)NCCCO)c(C)c2c2occ(C(C)(C)C)c12,"inconclusive: 10 µM [fluorescent, side channel, partial curve]",–
COc1ccccc1C(=O)NNc1ncc(C)s1,–,inactive: -3.12%
COc1cccc(NC2=C(NCCO)C(=O)c3ccccc3C2=O)c1,"inconclusive: 14.1 µM [inhibitor, partial curve]",–
CCOC(=O)C1CCN(Cc2cnc(Oc3ccc(OC)cc3)s2)CC1,"inconclusive: 3.16 µM [inhibitor, partial curve]",–
Clc1cccc(C2Nc3cccc4cccc(c34)N2)c1,"inconclusive: 3.16 µM [quencher, side channel, full curve]",–

Compound,Potency,"FP activity change, negative = inhibition"
Cc1ccc(OCc2nc(-c3cccs3)no2)c([N+](=O)[O-])c1,"inconclusive: 14.1 µM [quencher, side channel, partial curve]",–
CCc1ccc(CNC(=O)C2CCN(S(=O)(=O)N3CC(C)CC(C)C3)CC2)cc1 (configuration not stated),"inconclusive: 11.2 µM [fluorescent, side channel, partial curve]",–
COc1cccc2cc(CC(=O)c3ccc(C)cc3C)c(=O)oc12,"inconclusive: 20 µM [fluorescent, side channel, single point]",–
Cc1cccc(/N=C/c2c(O)[nH]c3ccccc23)n1,"inconclusive: 28.2 µM [quencher, side channel, partial curve]",–
CCN(CC)c1ccc(NC(=O)CSc2nc3ccccc3c(=O)[nH]2)cc1,"inconclusive: 39.8 µM [quencher, side channel, single point]",–
COc1cc(/C=C/c2nc3ccccc3c(=O)[nH]2)cc(Cl)c1O,"inconclusive: 6.31 µM [quencher, side channel, single point]",–
CCC1c2ccc(C)n2CCN1C(=O)Nc1ccccc1OC (configuration not stated),"inconclusive: 39.8 µM [inhibitor, single point]",–
CC(C)OC(=O)CSc1nc(Cc2cccs2)nc2ccccc12,"inconclusive: 4.47 µM [inhibitor, single point]",–
O=S(=O)(/C=C/c1ccccc1)N1CCN(c2ccc(F)cc2)CC1,"inconclusive: 39.8 µM [quencher, side channel, single point]",–
CCOC(=O)c1c(NC(C)=O)sc2c(O)c(Br)cc(Br)c12,"inconclusive: 39.8 µM [quencher, side channel, single point]",–
O=C(/C=C/c1ccc(Br)o1)NCc1ccccc1,"inconclusive: 35.5 µM [quencher, side channel, single point]",–
Cc1ccc(-c2nnc(SCC(=O)N/N=C/c3ccccc3C(=O)O)n2-c2ccccc2)cc1,"inconclusive: 8.91 µM [fluorescent, side channel, full curve, poor fit]",–
COc1ccc(C(=O)N(CCc2ccccc2)Cc2cccs2)c(OC)c1,"inconclusive: 39.8 µM [activator, single point]",–
Cc1ccc(C)c(NS(=O)(=O)c2cc(C(=O)Nc3ccccc3-c3ccccc3)ccc2Cl)c1,"inconclusive: 35.5 µM [inhibitor, single point]",–
CCOc1cc2[nH]c(=S)n(CCCN3CCOCC3)c(=O)c2cc1OCC,"inconclusive: 39.8 µM [inhibitor, single point]",–
CC(C)=CCCC1(C)C=Cc2c(ccc3c2[nH]c2cc(O)c(C)cc23)O1 (configuration not stated),"inconclusive: 3.16 µM [quencher, side channel, full curve]",–
O=C(CSc1nnc(-c2cccnc2)n1CCN1CCCCC1)Nc1cccc(Cl)c1,–,inactive: -5.72%
COc1ccc(-c2nnc3ccc(SCC(=O)N4CCCCCC4)nn23)cc1OC,"inconclusive: 39.8 µM [inhibitor, single point]",–
COc1ccccc1N(CC(=O)NCCSCc1ccccc1)S(C)(=O)=O,"inconclusive: 39.8 µM [inhibitor, single point]",–
